# Laboratory results published in the supplement of paper PMC8728848.
# The other results are listed elsewhere or left out.
# B1: Eosinophil cationic protein (ECP) (Homo sapiens), P12724 (protein)
# chain: MVPKLFTSQICLLLLLGLMGVEGSLHARPPQFTRAQWFAIQHISLNPPRCTIAMRAINNYRWRCKNQNTFLRTTFANVVNVCGNQSIRCPHNRTLNNCHRSRFRVPLLHCDLINPGAQNISNCTYADRPGRRFYVVACDNRDPRDSPRYPVVPVHLDTTI
# Columns and labels:
# Assay in all cases: glycan array binding signal (z-score within array); higher = stronger binding
# Conditions in all cases: glycan notation: IUPAC condensed, linker removed
# Fuc(a1-2)Gal = molecular target: Fuc(a1-2)Gal
# In short: (§1)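 Columns mapping to the same glycan were averaged after glycan names were converted to IUPAC-condensed notation. The data come from 3228 arrays in the Consortium for Functional Glycomics database, limited to those with an available protein sequence. Binding is reported as a within-array Z-score averaged across arrays of one protein sequence and across linkers.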
# Fuc(a1-2)Gal(b1-3)GalNAc = molecular target: Fuc(a1-2)Gal(b1-3)GalNAc
# In short: as §1
# [1] = molecular target: Fuc(a1-2)Gal(b1-3)GalNAc(a1-3)[Fuc(a1-2)]Gal(b1-4)Glc
# In short: as §1
# [2] = molecular target: Fuc(a1-2)Gal(b1-3)GalNAc(a1-3)[Fuc(a1-2)]Gal(b1-4)GlcNAc
# In short: as §1
# [3] = molecular target: Fuc(a1-2)Gal(b1-3)GalNAc(b1-3)Gal
# In short: as §1
# [4] = molecular target: Fuc(a1-2)Gal(b1-3)GalNAc(b1-3)Gal(a1-4)Gal(b1-4)Glc
# In short: as §1
# [5] = molecular target: Fuc(a1-2)Gal(b1-3)GalNAc(b1-4)[Neu5Ac(a2-3)]Gal(b1-4)Glc
# In short: as §1
# Fuc(a1-2)Gal(b1-3)GlcNAc = molecular target: Fuc(a1-2)Gal(b1-3)GlcNAc
# In short: as §1
# [6] = molecular target: Fuc(a1-2)Gal(b1-3)GlcNAc(b1-2)Man(a1-3)[Fuc(a1-2)Gal(b1-3)GlcNAc(b1-2)Man(a1-6)]Man(b1-4)GlcNAc(b1-4)GlcNAc
# In short: as §1
# [7] = molecular target: Fuc(a1-2)Gal(b1-3)GlcNAc(b1-2)Man(a1-3)[Fuc(a1-2)Gal(b1-3)GlcNAc(b1-2)Man(a1-6)]Man(b1-4)GlcNAc(b1-4)[Fuc(a1-6)]GlcNAc
# In short: as §1
# [8] = molecular target: Fuc(a1-2)Gal(b1-3)GlcNAc(b1-3)Gal(b1-4)Glc
# In short: as §1
# [9] = molecular target: Fuc(a1-2)Gal(b1-3)GlcNAc(b1-3)GalNAc
# In short: as §1
# [10] = molecular target: Fuc(a1-2)Gal(b1-3)GlcNAc(b1-3)[Fuc(a1-3)[Gal(b1-4)]GlcNAc(b1-6)]Gal(b1-4)Glc
# In short: as §1
# [11] = molecular target: Fuc(a1-2)Gal(b1-3)GlcNAc(b1-3)[Gal(b1-4)GlcNAc(b1-6)]Gal(b1-4)Glc
# In short: as §1
# [12] = molecular target: Fuc(a1-2)Gal(b1-3)GlcNAc(b1-3)[Neu5Ac(a2-6)Gal(b1-4)GlcNAc(b1-6)]Gal(b1-4)Glc
# In short: as §1
# [13] = molecular target: Fuc(a1-2)Gal(b1-3)[Fuc(a1-4)]GlcNAc
# In short: as §1
# [14] = molecular target: Fuc(a1-2)Gal(b1-3)[Fuc(a1-4)]GlcNAc(b1-2)Man(a1-3)[Fuc(a1-2)Gal(b1-3)[Fuc(a1-4)]GlcNAc(b1-2)Man(a1-6)]Man(b1-4)GlcNAc(b1-4)GlcNAc
# In short: as §1
# [15] = molecular target: Fuc(a1-2)Gal(b1-3)[Fuc(a1-4)]GlcNAc(b1-3)[Fuc(a1-3)[Gal(b1-4)]GlcNAc(b1-6)]Gal(b1-4)Glc
# In short: as §1
# [16] = molecular target: Fuc(a1-2)Gal(b1-3)[Fuc(a1-4)]GlcNAc(b1-3)[Gal(b1-4)GlcNAc(b1-6)]Gal(b1-4)Glc
# In short: as §1
# Fuc(a1-2)Gal(b1-4)Glc = molecular target: Fuc(a1-2)Gal(b1-4)Glc
# In short: as §1
# Fuc(a1-2)Gal(b1-4)Glc6S = molecular target: Fuc(a1-2)Gal(b1-4)Glc6S
# In short: as §1
# Fuc(a1-2)Gal(b1-4)GlcNAc = molecular target: Fuc(a1-2)Gal(b1-4)GlcNAc
# In short: as §1
# [17] = molecular target: Fuc(a1-2)Gal(b1-4)GlcNAc(b1-2)Man(a1-3)[Fuc(a1-2)Gal(b1-4)GlcNAc(b1-2)Man(a1-6)]Man(b1-4)GlcNAc(b1-4)GlcNAc
# In short: as §1
# [18] = molecular target: Fuc(a1-2)Gal(b1-4)GlcNAc(b1-2)Man(a1-3)[Fuc(a1-2)Gal(b1-4)GlcNAc(b1-2)Man(a1-6)]Man(b1-4)GlcNAc(b1-4)[Fuc(a1-6)]GlcNAc
# In short: as §1
# [19] = molecular target: Fuc(a1-2)Gal(b1-4)GlcNAc(b1-2)[Fuc(a1-2)Gal(b1-4)GlcNAc(b1-4)]Man(a1-3)[Fuc(a1-2)Gal(b1-4)GlcNAc(b1-2)Man(a1-6)]Man(b1-4)GlcNAc(b1-4)GlcNAc
# In short: as §1
# [20] = molecular target: Fuc(a1-2)Gal(b1-4)GlcNAc(b1-3)Gal(b1-4)GlcNAc
# In short: as §1
# [21] = molecular target: Fuc(a1-2)Gal(b1-4)GlcNAc(b1-3)Gal(b1-4)GlcNAc(b1-3)Gal(b1-4)GlcNAc
# In short: as §1
# [22] = molecular target: Fuc(a1-2)Gal(b1-4)GlcNAc(b1-3)GalNAc
# In short: as §1
# [23] = molecular target: Fuc(a1-2)Gal(b1-4)GlcNAc(b1-3)[Fuc(a1-2)Gal(b1-4)GlcNAc(b1-6)]GalNAc
# In short: as §1
# [24] = molecular target: Fuc(a1-2)Gal(b1-4)GlcNAc6S
# In short: as §1
binder,measurement,setting,value
B1,glycan array binding signal (z-score),Fuc(a1-2)Gal,-0.111
same,glycan array binding signal (z-score),Fuc(a1-2)Gal(b1-3)GalNAc,-0.336
same,glycan array binding signal (z-score),[1],0.025
same,glycan array binding signal (z-score),[2],-0.458
same,glycan array binding signal (z-score),[3],-0.243
same,glycan array binding signal (z-score),[4],-0.269
same,glycan array binding signal (z-score),[5],-0.163
same,glycan array binding signal (z-score),Fuc(a1-2)Gal(b1-3)GlcNAc,-0.304
same,glycan array binding signal (z-score),[6],0.294
same,glycan array binding signal (z-score),[7],0.213
same,glycan array binding signal (z-score),[8],0.107
same,glycan array binding signal (z-score),[9],-0.327
same,glycan array binding signal (z-score),[10],0.182
same,glycan array binding signal (z-score),[11],-0.602
same,glycan array binding signal (z-score),[12],-0.034
same,glycan array binding signal (z-score),[13],-0.021
same,glycan array binding signal (z-score),[14],0.469
same,glycan array binding signal (z-score),[15],-0.463
same,glycan array binding signal (z-score),[16],-0.315
same,glycan array binding signal (z-score),Fuc(a1-2)Gal(b1-4)Glc,-0.348
same,glycan array binding signal (z-score),Fuc(a1-2)Gal(b1-4)Glc6S,-0.362
same,glycan array binding signal (z-score),Fuc(a1-2)Gal(b1-4)GlcNAc,-0.312
same,glycan array binding signal (z-score),[17],-0.016
same,glycan array binding signal (z-score),[18],-0.652
same,glycan array binding signal (z-score),[19],-0.427
same,glycan array binding signal (z-score),[20],0.238
same,glycan array binding signal (z-score),[21],-0.175
same,glycan array binding signal (z-score),[22],-0.181
same,glycan array binding signal (z-score),[23],0.259
same,glycan array binding signal (z-score),[24],-0.281
